Laboratory results as given in PubChem BioAssay AID651711 (Broad Institute, 2012).
“And” between values parts separate entries of the source, which are not always exact repeats. Identical values can stand only once. Among all 350,000 compounds or so, about 180 (0.051%) were called active. This list was built around the results that the source calls inconclusive (neither active nor inactive); the mix of calls is not that of the screen.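 Rule for the calls: active = mean replicate inhibition above about 25%, with every replicate also reaching it (limit read from the data, passing the limit was not always enough); inconclusive = only one of those two criteria met; inactive = neither criterion met.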

These molecules were tested against Protein disulfide-isomerase A6 (Homo sapiens) (UniProt Q15084) (assay: inhibitors of ERp5-driven insulin aggregation, primary screen, biochemical, turbidity, absorbance 650 nm, single point (AID 651711)). Settings: 90 min, at 9.99 µM, stronger effect = higher value.
UniProt Q15084, sequence (Q15084 whole entry, looked up): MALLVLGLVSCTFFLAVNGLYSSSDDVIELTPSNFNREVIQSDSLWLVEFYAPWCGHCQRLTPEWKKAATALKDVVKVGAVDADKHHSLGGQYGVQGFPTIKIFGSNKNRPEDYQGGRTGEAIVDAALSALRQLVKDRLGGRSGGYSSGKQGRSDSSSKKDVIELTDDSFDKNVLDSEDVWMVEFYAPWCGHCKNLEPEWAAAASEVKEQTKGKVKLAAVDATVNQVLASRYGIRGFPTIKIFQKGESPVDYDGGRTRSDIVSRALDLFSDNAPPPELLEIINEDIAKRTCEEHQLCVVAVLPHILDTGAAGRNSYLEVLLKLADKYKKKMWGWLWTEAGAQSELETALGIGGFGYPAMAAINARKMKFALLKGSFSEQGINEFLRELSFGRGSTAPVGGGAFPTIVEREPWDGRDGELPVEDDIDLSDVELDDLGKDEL
`C[C@@H]1CN([C@@H](C)CO)C(=O)c2cc(NS(=O)(=O)c3ccccc3)ccc2O[C@@H]1CN(C)Cc1ccc(C(=O)O)cc1` was tested, and the inhibition was inactive: -2.81%.
In the case of `CNC(=O)COC(=O)/C=C/c1c(C)nn(-c2ccccc2)c1C`, the inhibition is reported as inconclusive: 42.7%.
In the case of `COc1ccc(NC(=O)N(C)C[C@@H]2Oc3ccc(NC(=O)Nc4ccc(F)cc4)cc3CC(=O)N([C@@H](C)CO)C[C@@H]2C)cc1`, the inhibition is reported as active: 78.7%.
`O=C1N/C(=N\N=C\c2cccs2)SC1Cc1ccc(Cl)cc1` (configuration not stated) was tested, and the inhibition was inconclusive: 41.6%.
`CCCn1c(SCC(=O)NC(=O)NC(C)(C)C)n[nH]c1=O` was tested, and the inhibition was inconclusive: 44.7%.
With `CO[C@H]1CC[C@H]2CCOc3c(C#N)cccc3C(=O)N(C)CC3(CCCCC3)CC(=O)N(C)C[C@H]1O2` the inhibition was inconclusive: 35.5%.
In the case of `O=C(NNc1cccc(Cl)n1)C(F)(F)F`, the inhibition is reported as inconclusive: 48%.
In the case of `CNS(=O)(=O)c1cccc(C(=O)OCC(=O)Nc2ccc(N3CCCCC3)cc2)c1`, the inhibition is reported as inactive: 2.81%.
`O=S(=O)(c1ccc(NC(=S)N/N=C/c2ccc(O)c(O)c2)cc1)N1CCOCC1` was tested, and the inhibition was inactive: 2.05%.
In the case of `O=C(NCCN1CCOCC1)c1ccc2c(c1)N(Cc1ccc(F)cc1)C(=O)CS2`, the inhibition is reported as inconclusive: 52.4%.
With `CCCC(CCC)C(=O)Nc1cccc(C(=O)O)c1` the inhibition was inconclusive: 59.5%.
For `CCOC(=O)C1=C(CC)Nc2ccccc2N=C1NC(=O)c1ccc(S(=O)(=O)N2CCOCC2)cc1`, the inhibition was inconclusive: 45.9%.
`COC(=O)CNc1cccc(C(F)(F)F)c1` was tested, and the inhibition was inactive: -4.45%.
`C=CCn1c(-c2csc3c2CCC(C)C3)n[nH]c1=S` (configuration not stated) was tested, and the inhibition was inconclusive: 42%.
In the case of `CN1CCN(c2cc(-c3cc(O)c4ncccc4c3)ccn2)CC1`, the inhibition is reported as inactive: 18.5%.
`O=c1oc2ccccc2cc1-c1cn(-c2ccccc2)c(=S)[nH]1` was tested, and the inhibition was inconclusive: 44%.
In the case of `Cn1nc(C(=O)OCc2ccc(F)cc2)c2ccccc2c1=O`, the inhibition is reported as inconclusive: 26.9%.
For `Cc1cccc(Nc2nnc(SCC(=O)NC3CCCc4ccccc43)s2)c1C` (configuration not stated), the inhibition was inconclusive: 39.1%.
With `CCCC1=[N+](CC(C)=O)CCn2c(C)ccc21` the inhibition was inconclusive: 45.7%.
`CCOC(=O)COn1c(=O)c(-c2ccc(Cl)cc2)[n+]([O-])c2ccccc21` was tested, and the inhibition was inconclusive: 48.2%.
`Cc1ccc(/C=C2\SC(=S)N(CCCC(=O)Nc3ccc(O)cc3)C2=O)cc1` was tested, and the inhibition was inconclusive: 42.5%.
With `COc1cc(NC(=O)c2ccc(-c3csc(C)n3)cc2)c(OC)cc1Cl` the inhibition was inconclusive: 26%.
`COc1cc2c(C(=O)NCCN(C)C)cn(CC(C)C)c(=O)c2cc1OC` was tested, and the inhibition was inconclusive: 44.1%.
With `O=C(Cc1ccccc1)Nc1ccc2oc(=O)ccc2c1` the inhibition was inactive: -0.636%.
In the case of `O=C(CN1C(=O)S/C(=C\c2ccc(O)cc2)C1=O)c1ccccc1`, the inhibition is reported as inconclusive: 26.2%.
For `N/C(=N\OC(=O)c1ccc2c(c1)OCO2)c1ccc(Br)cc1`, the inhibition was inconclusive: 38.6%.
For `CCCc1cc(=O)[nH]c(SCC(=O)Nc2c(C)n(C)n(-c3ccccc3)c2=O)n1`, the inhibition was inconclusive: 48.5%.
In the case of `Cc1ccc(S(=O)(=O)N2CCOCC2)cc1C(=O)NCc1cccs1`, the inhibition is reported as inconclusive: 38.7%.
For `C[C@H]1CCCCO[C@H](CN(C)C(=O)Nc2ccc(F)cc2)[C@@H](C)CN([C@@H](C)CO)C(=O)c2cc(NS(=O)(=O)c3cn(C)cn3)ccc2O1`, the inhibition was inactive: 9.55%.
In the case of `CC(C)c1ccc(N=C(N)N=C(N)N)cc1`, the inhibition is reported as inconclusive: 35.8%.
With `CCN1C(=O)[C@H]2[C@H]3CN=C(SCc4ccc(C#N)cc4)N3[C@@](Cc3ccccc3)(C(=O)OC)[C@H]2C1=O` the inhibition was inactive: -3.52%.
In the case of `Cn1c(=O)c2c(-c3cccc(Br)c3)c(C#N)c(N)nc2n(C)c1=O`, the inhibition is reported as inconclusive: 45.3%.
With `N#C/C(=C\c1ccc(OCC(N)=O)cc1)S(=O)(=O)c1ccccc1` the inhibition was inconclusive: 43.7%.
`CCCCN(CCCNc1ncnc2nc[nH]c12)c1ccccc1` was tested, and the inhibition was inactive: 0.702%.
`Cc1cc(OC(=O)c2ccccc2)c([N+](=O)[O-])c(=O)[nH]1` was tested, and the inhibition was inconclusive: 39.8%.
With `Cc1noc(C)c1NC(=O)Nc1ccc2c(c1)C(=O)N([C@@H](C)CO)C[C@H](C)[C@@H](CN(C)S(C)(=O)=O)OCCCC[C@H](C)O2` the inhibition was inactive: -1.32%.
`C[C@H]1CN([C@@H](C)CO)C(=O)c2cccc(NC(=O)c3nc4ccccc4s3)c2O[C@@H]1CN(C)C(=O)Nc1ccc(C(F)(F)F)cc1` was tested, and the inhibition was active: 26.6%.
For `CC(=O)Nc1ccc(N/C=C(\C=O)c2nc3ccccc3o2)cc1`, the inhibition was inconclusive: 45.7%.
For `O=c1cc(Nc2cccc(Br)c2)[nH]c(=O)[nH]1`, the inhibition was inconclusive: 42.6%.
In the case of `O=C(CN1C(=O)c2ccccc2S1(=O)=O)NC1CC2CCC1C2` (configuration not stated), the inhibition is reported as inconclusive: 54.7%.
In the case of `COc1ccc(C2CC(c3ccccc3O)=NN2C(=O)c2ccccc2)cc1OC` (configuration not stated), the inhibition is reported as inconclusive: 36.5%.
In the case of `CN1CCc2c(n(CC(O)CNCc3ccccc3)c3ccccc23)C1=O` (configuration not stated), the inhibition is reported as inconclusive: 36.8%.
In the case of `CCCNC(=O)N[C@@H]1CC[C@@H](CCn2cc(C3CCCC3)nn2)O[C@H]1CO`, the inhibition is reported as inconclusive: 29.7%.
In the case of `CCCNC(=O)C[C@H]1C[C@H]2c3cc(NS(C)(=O)=O)ccc3O[C@H]2[C@@H](CO)O1`, the inhibition is reported as active: 26.7%.
In the case of `CO[C@H]1CN(C)C(=O)c2cc(NC(=O)C3CC3)ccc2OC[C@H](C)N(C(=O)C2CCCCC2)C[C@@H]1C`, the inhibition is reported as inactive: 2.17%.
For `COC(=O)c1ccc(COC(=O)CNS(=O)(=O)c2ccccc2)cc1`, the inhibition was inconclusive: 36.7%.
For `O=C(Nc1ccc(Br)cc1)c1cc(-c2cccs2)on1`, the inhibition was inactive: -3.76%.
With `O=C(O)CC(CC(=O)Nc1ccc(N2CCOCC2)cc1)c1ccccc1` (configuration not stated) the inhibition was inactive: 4.79%.
`CCCNC(=O)[C@@H]1[C@@H](CO)[C@@H]2Cn3c(ccc(-c4cccc(F)c4)c3=O)[C@@H]2N1C(=O)CC` was tested, and the inhibition was inactive: 3.92%.
With `CN=c1scc(-c2ccc(OC)cc2)n1/N=C(\C)c1cccnc1` the inhibition was inconclusive: 34.4%.
In the case of `O=C(Nc1ccc(F)cc1)N1CCc2ccccc2C1`, the inhibition is reported as inconclusive: 25.9%.
With `Cc1noc(NS(=O)(=O)c2ccc(N/C=C\C(=O)c3cccs3)cc2)c1C` the inhibition was inconclusive: 33%.
For `N#CCSc1ncnc2ccccc12`, the inhibition was inconclusive: 43%.
With `COc1ccc(-c2cc(C(=O)NC3CCCCC3)no2)cc1OC` the inhibition was inconclusive: 29.6%.
For `COc1ccc(C2=NN(C(=O)CSc3ncccn3)C(c3ccc(OC)cc3)C2)cc1` (configuration not stated), the inhibition was inconclusive: 48.5%.
`C[C@@H]1CN([C@@H](C)CO)C(=O)c2cc(C#CCc3ccccc3)cnc2O[C@H]1CN(C)CC1CCOCC1` was tested, and the inhibition was inconclusive: 40.3%.
With `Cc1cc(NC(=O)c2sccc2C)n(-c2nc3ccccc3[nH]2)n1` the inhibition was inconclusive: 40.6%.
In the case of `COc1ccc(S(=O)(=O)N2CCC3(CC2)CN(C(=O)CN(C)C)[C@@H](CO)c2c3c3ccc(OC)cc3n2C)cc1`, the inhibition is reported as inactive: -5.95%.
`CCC(=O)N(C)C[C@@H]1Oc2ncc(Br)cc2C(=O)N([C@H](C)CO)C[C@H]1C` was tested, and the inhibition was inactive: -4.12% and inactive: -0.785% and inactive: 1.85%.
In the case of `O=C(NNC(=O)c1cccc([N+](=O)[O-])c1)c1ccncc1`, the inhibition is reported as inactive: 4.22%.
In the case of `O=C(O)C(c1ccccc1)N1C(=O)/C(=C/c2cccs2)SC1=S` (configuration not stated), the inhibition is reported as inconclusive: 41%.
In the case of `COc1cc(/C=N/O)ccc1Oc1cnccn1`, the inhibition is reported as inconclusive: 32.2%.
With `COc1ccc(C2CC(c3cccs3)=NN2c2nc(-c3ccccc3)cs2)cc1OC` (configuration not stated) the inhibition was inconclusive: 43.7%.
`COc1cc(C(=O)NCCC(=O)NC(C)C)cc(OC)c1OC` was tested, and the inhibition was inconclusive: 33.9%.
`O=C([C@H]1[C@H](CO)[C@H]2Cn3c(cccc3=O)[C@@H]1N2Cc1cccc(Cl)c1)N1CCOCC1` was tested, and the inhibition was inconclusive: 53.3%.
For `O=C(C1=C[C@@H](c2ccc3c(c2)OCO3)C[C@@H](OCc2ccc(CO)cc2)O1)N1CCCCCCC1`, the inhibition was inactive: 1.4%.
With `C=CCN1N=C(/C=C/c2ccc(OC)cc2)CCC1=O` the inhibition was inactive: -0.326%.
`COc1ccc(S(=O)(=O)NC(C)C(=O)N2CCCC2)cc1Cl` (configuration not stated) was tested, and the inhibition was inconclusive: 50.8%.
`CCCCN1C[C@H](c2ccc(OC)cc2)[C@@H](CC(=O)Nc2ccc(Br)cc2)C1=O` was tested, and the inhibition was inactive: 0.521%.
In the case of `CC(C)(C)c1ccc(Oc2ccc(N)cc2)cc1`, the inhibition is reported as inconclusive: 51%.
For `CC(C)C#Cc1ccc2c(c1)O[C@H](CN(C)S(=O)(=O)c1cn(C)cn1)[C@H](C)CN([C@H](C)CO)S2(=O)=O`, the inhibition was inactive: 2.45%.
With `C[C@@H]1CN([C@@H](C)CO)C(=O)c2cc(Br)cnc2O[C@H]1CN(C)Cc1cccc(F)c1` the inhibition was inconclusive: 26.4% and active: 36.9%.
With `Fc1cc(NCc2ccccc2)nc(NCc2ccccc2)n1` the inhibition was inconclusive: 33.9%.
With `S=C(NCCc1ccncc1)Nc1cccc2ccccc12` the inhibition was inconclusive: 44.7%.
For `CC(C)N(C(=O)COC(=O)[C@H](C)NC(N)=O)c1ccccc1`, the inhibition was inactive: -6.53%.
`COc1ccc(C(=O)Nc2ccc3nc(N4CCN(C)CC4)cc(C)c3c2)c(OC)c1` was tested, and the inhibition was inactive: 1.92%.
In the case of `COc1cccc(-c2ccc([C@@H]3[C@H](CO)N4C(=O)CN(C(=O)C5CCCC5)C[C@@H]34)cc2)c1`, the inhibition is reported as inactive: -1.69%.
For `Oc1ccc(NCc2ccccc2OCc2ccccc2)cc1`, the inhibition was inconclusive: 38.1%.
For `Cc1ccc(NC(=O)COc2ccccc2)c(NC(=O)c2ccco2)c1`, the inhibition was active: 29.7%.
`CN(C)CCOCCOc1ccc(Cl)cc1Br` was tested, and the inhibition was inconclusive: 31.1%.
In the case of `OCCCCNc1cccc2ccccc12`, the inhibition is reported as inconclusive: 37%.
In the case of `CN(C)c1ccc(-c2nnn(CC(=O)N3c4ccccc4CCc4ccccc43)n2)cc1`, the inhibition is reported as inconclusive: 40.6%.
